Reference: paper PMC4336329 (PLoS ONE, 2015)
Screen size: about 310,000 compounds; about 14,000 (4.5%) showed an effect of 50% or more. The effect is printed as a negative number. The list shows a part of the results.

These compounds were tested against human ether-à-go-go-related gene (hERG) potassium channel (human, UniProt Q12809) (assay: primary screen, population patch clamp on CHO cells stably expressing hERG).
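Further: peak tail current of the secondary pulse compared with the same well before compound.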

Sequence of human ether-à-go-go-related gene (hERG) potassium channel (Q12809 whole entry, looked up): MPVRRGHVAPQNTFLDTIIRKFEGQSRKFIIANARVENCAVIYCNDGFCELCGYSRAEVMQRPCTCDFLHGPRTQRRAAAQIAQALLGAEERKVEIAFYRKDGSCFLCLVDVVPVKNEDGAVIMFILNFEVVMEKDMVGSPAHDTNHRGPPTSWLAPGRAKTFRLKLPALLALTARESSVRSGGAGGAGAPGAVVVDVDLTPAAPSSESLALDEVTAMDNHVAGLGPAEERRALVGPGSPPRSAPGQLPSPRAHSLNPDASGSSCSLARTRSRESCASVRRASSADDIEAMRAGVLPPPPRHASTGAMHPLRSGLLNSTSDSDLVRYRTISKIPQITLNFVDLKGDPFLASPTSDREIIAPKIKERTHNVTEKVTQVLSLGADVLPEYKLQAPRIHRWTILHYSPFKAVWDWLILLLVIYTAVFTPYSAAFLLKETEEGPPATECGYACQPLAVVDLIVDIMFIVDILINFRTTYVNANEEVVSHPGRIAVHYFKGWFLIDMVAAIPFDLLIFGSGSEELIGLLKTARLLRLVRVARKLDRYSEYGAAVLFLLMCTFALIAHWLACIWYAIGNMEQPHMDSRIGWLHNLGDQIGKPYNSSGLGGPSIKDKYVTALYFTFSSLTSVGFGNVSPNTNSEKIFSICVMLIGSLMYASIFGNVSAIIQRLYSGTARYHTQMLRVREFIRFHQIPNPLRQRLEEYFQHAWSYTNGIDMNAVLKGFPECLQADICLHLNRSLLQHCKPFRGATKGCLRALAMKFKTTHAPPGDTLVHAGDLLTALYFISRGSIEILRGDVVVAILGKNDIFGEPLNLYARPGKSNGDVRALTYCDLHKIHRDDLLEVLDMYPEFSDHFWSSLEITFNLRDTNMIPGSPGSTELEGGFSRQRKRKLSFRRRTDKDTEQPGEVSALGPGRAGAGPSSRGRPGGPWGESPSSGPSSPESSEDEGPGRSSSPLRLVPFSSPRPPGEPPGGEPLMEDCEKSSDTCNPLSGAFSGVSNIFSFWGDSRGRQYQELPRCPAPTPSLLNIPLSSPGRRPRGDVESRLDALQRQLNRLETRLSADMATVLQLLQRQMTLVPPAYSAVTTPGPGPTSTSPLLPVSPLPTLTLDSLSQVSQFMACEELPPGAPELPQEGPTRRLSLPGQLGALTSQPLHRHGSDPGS

| SMILES | hERG current change (%, negative = inhibition) at 10uM [%] |
| --- | --- |
| Cc1cc(C)c(S(C)(=O)=O)c(N(C)NC(=O)c2c(F)cccc2F)n1 | 19.5 |
| O=C(CCCCCN1C(=O)[C@@H]2Cc3ccccc3CN2C1=O)N[C@@H](Cc1ccc(O)cc1)C(=O)O | 1.02 |
| CCOc1ccc(CCNS(=O)(=O)c2c(C)nc3scc(C)n3c2=O)cc1OCC | -13.7 |
| CCCn1nnnc1NCc1ccc(N2CCCC2)cc1 | -10.6 |
| O=C(COc1ccc(Br)cc1)NCCNC(=O)c1ccncc1 | -34 |
| CNC(=O)N(O)C1N(/N=C/c2ccc(N(C)C)cc2)C(=S)SC1(C)C (stereo not drawn) | 31.5 |
| C=CCn1c(SCn2nnc3ccccc3c2=O)nnc1-c1ccc(Cl)cc1 | -61.2 |
| CC(C)CC(=O)Nc1ccc2ccccc2c1 | 4.3 |
| O=C(/C=C/c1ccco1)NC(=S)Nc1ccccc1N1CCOCC1 | -7.73 |
| CCOC(=O)c1c(NC(=O)CCS(=O)(=O)c2ccccc2)sc2c1CCN(C)C2.Cl | -52.5 |
| Cc1cc(=O)n2[nH]c(C)c(-c3ccc(Cl)cc3)c2n1 | 3.91 |
| CC1CCCCN1CCCNC(=O)C1CCN(c2nnc(-n3cccc3)s2)CC1 (stereo not drawn) | -27.1 |
| CC1=CC(C)(C)N(C(=O)CSc2nnc(N)s2)c2ccccc21 | 6.19 |
| CCN(C(=O)CN1C(=O)S/C(=C\c2ccccc2OC)C1=O)C1CCS(=O)(=O)C1 (stereo not drawn) | 3.22 |
| O=c1c2cnn(-c3ccccc3)c2ncn1Cc1ccco1 | -7.57 |
| COc1ccc(CCN2CC(C(=O)NCCc3ccc(F)cc3)CCC2=O)cc1 (stereo not drawn) | -22 |
| Cc1ccc(/C=N/Nc2ccnc3cc(Cl)ccc23)c(C)c1 | 4.13 |
| O=C1ON=C(c2ccccc2)/C1=C/c1ccc(OS(=O)(=O)c2ccccc2)cc1 | 12.8 |
| Cc1cc(=O)oc2ccc(OCC(=O)N3CCc4ccccc43)cc12 | -5.88 |
| CC(OC(=O)c1cc2sccc2n1C)C(=O)NCc1ccco1 (stereo not drawn) | -12.7 |
| Nc1cc(C(=O)OCC(=O)NCc2ccc(F)cc2)ccc1Cl | -11.2 |
| CCc1ccc2[nH]c(=O)c(CN(Cc3nnnn3C3CCCC3)C3CCCCC3)cc2c1 | -13.4 |
| COc1cccc(N2C(=O)CN(Cc3cc(OC)c(OC)c(OC)c3)C2=S)c1 | 13.1 |
| Cc1ccc(OCCN(C)C(=O)C2CCC(=O)N(CCCN3CCCC3=O)C2)cc1 (stereo not drawn) | 11.3 |
